Data taken from paper PMC4336329 (PLoS ONE, 2015).
Hit rate of the full screen: of about 310,000 compounds, about 14,000 (4.5%) showed an effect of 50% or more. The effect is printed as a negative number. The list shows a part of the results.

Target: human ether-à-go-go-related gene (hERG) potassium channel (human, UniProt Q12809)
Assay: primary screen, population patch clamp on CHO cells stably expressing hERG
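Further: peak tail current of the secondary pulse compared with the same well before compound.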

Sequence of human ether-à-go-go-related gene (hERG) potassium channel (Q12809 whole entry, looked up): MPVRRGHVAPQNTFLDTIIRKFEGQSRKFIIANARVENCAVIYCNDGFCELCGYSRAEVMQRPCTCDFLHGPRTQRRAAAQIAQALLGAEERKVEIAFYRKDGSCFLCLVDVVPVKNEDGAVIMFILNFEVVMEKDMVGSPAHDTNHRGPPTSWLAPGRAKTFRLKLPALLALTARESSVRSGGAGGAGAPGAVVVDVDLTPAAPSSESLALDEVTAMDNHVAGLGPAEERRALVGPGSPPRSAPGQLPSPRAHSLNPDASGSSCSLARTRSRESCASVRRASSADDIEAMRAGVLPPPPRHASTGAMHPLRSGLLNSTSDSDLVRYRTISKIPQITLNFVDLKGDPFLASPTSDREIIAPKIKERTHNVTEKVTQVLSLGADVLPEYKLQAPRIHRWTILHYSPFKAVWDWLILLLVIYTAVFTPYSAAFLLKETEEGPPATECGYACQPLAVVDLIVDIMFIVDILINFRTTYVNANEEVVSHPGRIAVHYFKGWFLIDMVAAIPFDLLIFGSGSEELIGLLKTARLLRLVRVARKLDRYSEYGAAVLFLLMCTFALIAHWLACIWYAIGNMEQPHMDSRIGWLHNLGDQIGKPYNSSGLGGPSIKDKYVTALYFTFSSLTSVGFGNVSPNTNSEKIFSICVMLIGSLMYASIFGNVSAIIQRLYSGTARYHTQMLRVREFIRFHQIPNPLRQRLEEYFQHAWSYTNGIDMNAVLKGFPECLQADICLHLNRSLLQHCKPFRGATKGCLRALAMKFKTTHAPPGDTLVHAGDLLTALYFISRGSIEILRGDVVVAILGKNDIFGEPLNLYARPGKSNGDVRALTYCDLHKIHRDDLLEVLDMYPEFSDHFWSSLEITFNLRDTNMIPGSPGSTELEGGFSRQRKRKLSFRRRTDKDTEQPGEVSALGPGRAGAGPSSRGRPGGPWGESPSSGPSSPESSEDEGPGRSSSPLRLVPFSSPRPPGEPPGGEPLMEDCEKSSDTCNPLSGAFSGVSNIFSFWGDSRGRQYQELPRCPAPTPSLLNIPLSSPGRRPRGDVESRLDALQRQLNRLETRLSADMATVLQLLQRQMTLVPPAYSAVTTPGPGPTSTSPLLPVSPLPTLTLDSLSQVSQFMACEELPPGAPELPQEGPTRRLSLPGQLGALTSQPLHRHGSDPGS

Row | Compound | hERG current change (%, negative = inhibition) at 10uM
1 | N#Cc1c(NC(=O)CSc2ncnc3c2cnn3-c2ccccc2Cl)sc2c1CCCC2 | 3.26%
2 | OCc1cc(-c2ccccn2)no1 | 5.49%
3 | O=C(COC(=O)c1cc([N+](=O)[O-])ccc1N1CCOCC1)Nc1ncc(Cl)cc1Cl | -29.2%
4 | CSc1ncccc1C(=O)OCC(=O)c1[nH]c(C)c(C(C)=O)c1C | 3.77%
5 | Cc1ccc(S(=O)(=O)N2CCOCC2)cc1NC(=O)CSCc1c(C)noc1C | -8.77%
6 | O=C(CN1CCN(c2ccccn2)CC1)Nc1cccc(F)c1 | 5.56%
7 | c1csc(-c2nc3ccccc3[nH]2)c1 | 13.7%
8 | COc1cc2c(cc1OC)C(c1cccc([N+](=O)[O-])c1)N(C(=O)CCC(=O)O)CC2 (stereo not drawn) | 14.2%
9 | COc1ccc(C2CC3(CC(C)(C)NC(=O)N3)Oc3cc(O)ccc32)cc1 (stereo not drawn) | -20.3%
10 | COc1c(Cl)ccc(Cl)c1C(=O)NC(=O)Nc1nc(C)cc(C)n1 | -6.22%
11 | CCOC(=O)c1c(-n2cccc2)sc2c1CCCC2=O | -17%
12 | O=C(Nc1ccc(Cl)cc1)c1ccc(-n2cncn2)c([N+](=O)[O-])c1 | -41.1%
13 | CN(C)S(=O)(=O)c1ccc(Cl)c(C(=O)NNC(=O)Cc2nc3ccccc3n2C)c1 | -3.96%
14 | CCOC(=O)Nc1ccc([N+](=O)[O-])cc1C | 2.48%
15 | CCCn1c(SCC(=O)Nc2cccc(F)c2)nc(O)cc1=O | 23.1%
16 | Oc1ccc(/C=N/n2c(-c3ccco3)csc2=Nc2cccnc2)c(O)c1 | 5.3%
17 | CC(c1ccco1)N(C(=O)C12CC3CC(CC(C)(C3)C1)C2)c1ccccn1 (stereo not drawn) | -2.41%
18 | O=C(NCc1ccco1)c1cccnc1Cl | 1.19%
19 | Cc1ccc(NC(=S)N(CCCN2CCC(C)CC2)Cc2ccco2)cc1C | -70.3%
20 | Br.CCN(CC)CCn1c(=N)n(CC(=O)c2ccc(C)cc2)c2ccccc21 | -40.8%
21 | CCc1ccc(Oc2coc3cc(OC(=O)c4cc5ccccc5oc4=O)ccc3c2=O)cc1 | -6.46%
22 | CCOC(=O)C(=O)Nc1nnc(COc2ccccc2)s1 | 7.18%
23 | COc1ccc(C(=O)CCC(=O)Nc2cc(Cl)c(O)c(Cl)c2)cc1 | 17.3%
24 | CCNC(=O)COC(=O)c1cc(C)n(-c2ccccc2)c1C | 19.5%
